The results in this text go back to patent US11130803B2, “Isoform-selective TGFβ1 inhibitors and use thereof” (Scholar Rock, Inc., priority 2018, dated 2021).

One assay addresses T1, hLRRC33-proTGFβ1 (Homo sapiens, UniProt P01137).
T1 construct: made in house
Briefly: MSD-SET solution equilibrium titration binding. Particulars: MSD-SET at equilibrium, hIgG4, human complex; in M. An excerpt:
(§1) Solution Equilibrium Titration (SET): The SET is an assay whereby binding between two molecules (such as an antigen and an antibody that binds the antigen) can be measured at equilibrium in a solution. For example, Meso-Scale Discovery (“MSD”)-based SET, or MSD-SET, is a useful mode of determining dissociation constants for particularly high-affinity protein-protein interactions at equilibrium, such as picomolar-affinity antibodies binding to their antigens (see, for example: Ducata et al. (2015) J Biomolecular Screening 20(10): 1256-1267). The SET-based assays are particularly useful for determining KD values of antibodies with sub-nanomolar (e.g., picomolar) affinities.
(§2) In view of this, it is contemplated that assays that measure binding affinities of such antibodies at equilibrium may more accurately represent the mode of target engagement in vivo. Thus, MSD-SET-based binding assays (or other suitable assays) may be performed, as exemplified in Table 9 below.
(§3) Solution equilibrium titration (“SET”) is an assay whereby binding between two molecules (such as an antigen and an antibody that binds the antigen) can be measured at equilibrium in a solution. For example, Meso-Scale Discovery (“MSD”)-based SET, or MSD-SET, is a useful mode of determining dissociation constants for particularly high-affinity protein-protein interactions at equilibrium (see, for example: Ducata et al. (2015) J Biomolecular Screening 20(10): 1256-1267). The SET-based assays are particularly useful for determining KD values of antibodies with sub-nanomolar (e.g., picomolar) affinities.
(§4) For solution equilibrium titration-based binding assays, protein complexes that comprise one of the presenting molecules such as those shown above may be employed as antigen (presenting molecule-TGFβ1 complex, or an LLC). Test antibodies are allowed to form antigen-antibody complex in solution. Antigen-antibody reaction mixtures are incubated to allow an equilibrium to be reached; the amount of the antigen-antibody complex present in the assay reactions can be measured by suitable means well known in the art. As compared to BLI-based assays, SET-based assays are less affected by on/off rates of the antigen-antibody complex, allowing sensitive detection of very high affinity interactions.

Another assay has as its target T2, hLTBP3-proTGFβ1 (Homo sapiens, UniProt P01137).
T2 construct: made in house; host or cells: Expi293F cells, transient co-transfection
Briefly: MSD-SET solution equilibrium titration binding. The settings on record: MSD-SET at equilibrium, hIgG4, human complex; in M.
Excerpt: as §1, §2, §3, §4

Another assay has as its target T3, hLTBP1-proTGFβ1 (Homo sapiens, UniProt P01137).
T3 construct: made in house; host or cells: Expi293F cells, transient co-transfection
Briefly: MSD-SET solution equilibrium titration binding. Particulars: MSD-SET at equilibrium, hIgG4, human complex; in M.
Excerpt: as §1, §2, §3, §4

For a further assay, the target named is T4, hGARP-proTGFβ1 (Homo sapiens, UniProt P01137).
T4 construct: made in house
Briefly: MSD-SET solution equilibrium titration binding. Particulars: MSD-SET at equilibrium, hIgG4, human complex; in M.
Excerpt: as §1, §2, §3, §4

In assay [1] the test system is matrix-associated (LTBP1/LTBP3) and cell-associated (GARP/LRRC33) proTGFβ1 complexes. Briefly: Octet: average KD and fold bias, matrix- vs cell-associated complexes. The format is binding, human. The text has this:
Column (A) of the table lists monoclonal antibodies with discrete amino acid sequences. […] Columns (B), (D), (E) and (F) provide affinities of each of the listed antibodies, measured in KD. […] Average KD values of (B) and (C) are shown in the corresponding column (D), which collectively represents affinities of the antibodies to ECM- or matrix-associated proTGFβ1 complexes. Similarly, Average KD values of (E) and (F) are shown in the corresponding column (G), which collectively represents affinities of the antibodies to cell-surface or cell-associated proTGFβ1 complexes. Finally, relative ratios between the average KD values from columns (D) and (G) are expressed as “fold bias” in column (H). […] This is one way of quantitatively representing and comparing inherent bias of antibodies to their target complexes.
Average KD values between the two matrix-associated and cell-associated complexes are calculated, respectively (see columns (D) and (G)). These average KD values can then be used to ask whether bias in binding activities exists between complexes associated with matrix vs. complexes associated with cell surface (e.g., immune cells). Bias may be expressed as “fold-difference” in the average KD values, as illustrated in Table 8.
(In general: In BLI a coated tip is dipped into the sample, and binding shifts an interference pattern.)

T2 sequence (P01137 30-390): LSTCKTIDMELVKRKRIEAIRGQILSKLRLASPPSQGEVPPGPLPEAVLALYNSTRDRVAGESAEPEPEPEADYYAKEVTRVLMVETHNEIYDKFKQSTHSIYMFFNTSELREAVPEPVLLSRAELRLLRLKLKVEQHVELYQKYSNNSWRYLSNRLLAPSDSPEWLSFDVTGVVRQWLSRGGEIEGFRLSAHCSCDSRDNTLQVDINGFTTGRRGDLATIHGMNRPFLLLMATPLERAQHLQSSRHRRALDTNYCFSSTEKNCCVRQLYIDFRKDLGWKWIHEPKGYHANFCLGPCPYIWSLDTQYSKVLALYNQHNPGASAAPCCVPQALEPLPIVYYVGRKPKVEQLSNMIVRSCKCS
T2 sequence (Q9NS15 866-1039 partner limits assumed): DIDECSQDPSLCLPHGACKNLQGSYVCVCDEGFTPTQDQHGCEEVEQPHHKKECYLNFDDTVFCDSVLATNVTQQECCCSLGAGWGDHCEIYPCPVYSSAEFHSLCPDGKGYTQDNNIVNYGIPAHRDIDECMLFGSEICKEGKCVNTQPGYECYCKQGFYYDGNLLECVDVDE
T3 sequence (P01137 30-390): as the sequence (P01137 30-390) above
T3 sequence (Q14766 873-1507 partner): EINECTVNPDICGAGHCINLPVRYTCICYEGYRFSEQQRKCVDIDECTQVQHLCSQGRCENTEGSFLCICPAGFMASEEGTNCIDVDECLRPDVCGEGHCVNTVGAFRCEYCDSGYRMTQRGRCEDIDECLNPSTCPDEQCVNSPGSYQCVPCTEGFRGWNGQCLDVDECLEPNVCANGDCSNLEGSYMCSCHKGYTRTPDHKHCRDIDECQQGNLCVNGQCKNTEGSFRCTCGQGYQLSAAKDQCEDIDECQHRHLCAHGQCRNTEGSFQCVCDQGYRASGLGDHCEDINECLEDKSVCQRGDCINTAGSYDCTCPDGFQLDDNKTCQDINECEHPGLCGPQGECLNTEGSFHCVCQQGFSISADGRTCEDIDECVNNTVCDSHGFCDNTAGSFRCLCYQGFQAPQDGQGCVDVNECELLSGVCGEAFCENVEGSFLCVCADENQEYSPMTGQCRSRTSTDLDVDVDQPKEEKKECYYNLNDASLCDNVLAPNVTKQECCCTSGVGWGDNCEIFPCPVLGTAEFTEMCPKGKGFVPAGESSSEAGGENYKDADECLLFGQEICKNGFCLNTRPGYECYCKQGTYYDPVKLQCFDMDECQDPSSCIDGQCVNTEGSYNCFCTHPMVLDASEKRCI
T4 sequence (P01137 30-390): as the sequence (P01137 30-390) above
T4 sequence (Q14392 20-627 partner limits assumed): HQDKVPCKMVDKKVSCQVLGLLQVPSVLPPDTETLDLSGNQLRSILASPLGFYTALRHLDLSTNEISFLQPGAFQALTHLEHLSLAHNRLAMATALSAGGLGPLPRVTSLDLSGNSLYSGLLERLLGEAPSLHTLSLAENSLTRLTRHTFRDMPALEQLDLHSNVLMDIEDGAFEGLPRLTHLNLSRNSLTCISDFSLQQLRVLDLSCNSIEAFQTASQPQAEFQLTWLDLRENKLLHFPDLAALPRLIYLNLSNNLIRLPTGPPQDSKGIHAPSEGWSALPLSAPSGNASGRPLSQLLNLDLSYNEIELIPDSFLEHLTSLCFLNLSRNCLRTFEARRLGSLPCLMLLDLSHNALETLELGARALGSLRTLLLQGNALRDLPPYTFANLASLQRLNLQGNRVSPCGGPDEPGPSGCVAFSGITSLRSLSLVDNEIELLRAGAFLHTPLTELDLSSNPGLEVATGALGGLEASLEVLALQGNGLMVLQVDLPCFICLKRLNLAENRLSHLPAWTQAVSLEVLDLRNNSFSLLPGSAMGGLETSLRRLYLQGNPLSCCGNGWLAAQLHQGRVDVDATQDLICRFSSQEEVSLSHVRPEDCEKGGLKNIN
T1 sequence (P01137 30-390): as the sequence (P01137 30-390) above
T1 sequence (Q86YC3 19-650 partner limits assumed): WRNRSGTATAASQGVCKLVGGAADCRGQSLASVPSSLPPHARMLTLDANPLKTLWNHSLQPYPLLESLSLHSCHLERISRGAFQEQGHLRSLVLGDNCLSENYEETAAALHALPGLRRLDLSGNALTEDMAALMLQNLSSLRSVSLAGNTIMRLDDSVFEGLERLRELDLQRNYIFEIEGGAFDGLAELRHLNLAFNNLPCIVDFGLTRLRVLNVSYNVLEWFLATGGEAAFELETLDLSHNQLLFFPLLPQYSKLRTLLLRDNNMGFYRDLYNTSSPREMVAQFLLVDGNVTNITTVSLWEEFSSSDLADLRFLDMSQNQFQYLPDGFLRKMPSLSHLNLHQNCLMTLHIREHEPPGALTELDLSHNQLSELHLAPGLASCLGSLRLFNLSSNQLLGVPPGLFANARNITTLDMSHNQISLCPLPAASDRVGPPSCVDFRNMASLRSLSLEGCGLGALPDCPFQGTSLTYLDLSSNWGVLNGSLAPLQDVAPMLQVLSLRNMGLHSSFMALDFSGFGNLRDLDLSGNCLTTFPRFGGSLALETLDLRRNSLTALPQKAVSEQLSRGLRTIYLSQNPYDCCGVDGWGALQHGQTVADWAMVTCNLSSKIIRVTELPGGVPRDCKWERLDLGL

B1: Ab35: monoclonal antibody; VH SEQ ID NO: 252, VL SEQ ID NO: 236 (antibody, V domains shown)
VH: EVQLLESGGGLVQPGGSLRLSCAASGFTFRNYAMSWVRQAPGKGLEWVSSISGSGGATYYADSVKGRFTISRDNSKNTLYLQMNSLRAEDTAVYYCARVSSYLWDFDYWGQGTLVTVSS
VL: [… about 100 residues …]FTFGQGTKVEIK
Consider B1, for which the “(F) hLRRC33, Cell-associated proTGFβ1 KD” value in the assay with hLRRC33-proTGFβ1 stood at 1.10E−09. Further, in the assay with hLTBP3-proTGFβ1, the “(C) hLTBP3, Matrix-associated proTGFβ1 KD” value is recorded as 2.60E−10. The “(B) hLTBP1, Matrix-associated proTGFβ1 KD” value in the assay with hLTBP1-proTGFβ1 is listed as 2.70E−10. For the same molecule, the “(E) hGARP, Cell-associated proTGFβ1 KD” value in the assay with hGARP-proTGFβ1 was found to be 1.10E−09. Also, the Kd in assay [1] (average KD of (E) and (F), cell-associated complexes, read-out: (G) Cell AVRG) is 3.96 nM. The “(H) G/D (fold bias)” value in assay [1] (ratio of average KD cell-associated / matrix-associated) came to 24.13 fold.
